# Screen size: about 410,000 compounds; about 490 (0.12%) were called active. Inconclusive means that the source gave no clear call. Such entries were picked first, then a sample of the others. Calls follow the shape of the dose curve; as a rule, active = well fitted inhibition curve with a large enough effect; inconclusive = small, poorly fitted or top-dose-only effect; inactive = flat fitted curve, though single readings scatter. Potencies of inconclusive entries are doubtful fits and often do not repeat.
# Molecular target: pyruvate kinase (Trypanosoma brucei) (UniProt Q57TT1)
# Experiment: qHTS of Trypanosoma Brucei Inhibitors
# Details: TbPYK enzyme, Kinase-Glo Plus ATP luminescence, 45 min; series mostly up to 76.8 µM; activity, negative = inhibition: at the top concentration
# Text: Members of the Trypanosomatidae family of parasitic protozoans cause a spectrum of diseases throughout the tropical and subtropical world. Sleeping sickness, caused by two subspecies of Trypanosoma brucei, is endemic to areas of sub-Saharan Africa, while Chagas' disease, a manifestation of Trypanosoma cruzi infection, is prevalent throughout Central and South America. In addition, many species of Leishmania are responsible for a range of cutaneous and visceral diseases, causing ulcers, destructive lesions and kalaazar, a lethal infection of the viscera. These diseases cause severe public health and economic burdens on populations that are often already caught in a tragic cycle of poverty, poor nutrition and disease. Collectively, parasites of the trypanosomatid family infect 30 million people worldwide (~500 million live in endemic areas), and account for ~130K deaths annually. Existing treatments have developed little in the past 50 years, and suffer from toxicity, poor efficacy and resistance; the goal of this project is to develop lead drugs that will be suitable for entry into pre-clinical trials.
# Glycolysis in axenically cultured T. cruzi, representing the intracellular pathogenic stage, is also essential for these parasites. {Engel, 1987} This project aims to discover and optimize selective inhibitors of the glycolytic enzyme pyruvate kinase (PYK) from Trypanosoma brucei, the parasite that causes sleeping sickness. […] Trypanosomatid PYKs show significant differences from their human counterparts including only 47-50% sequence identity and different allosteric and activation properties.{Callens, 1992} To this end, a qHTS was done against the MLSMR to discover inhibitors.
# NIH Molecular Libraries Probe Production Network [MLPCN]
# NIH Chemical Genomics Center [NCGC]
# PI Name: Malcolm Walkinshaw, University of Edinburgh
# 2 uL of TbPYK/substrate buffer (columns 1-3, 5-48) are dispensed into Greiner white solid bottom 1536-well assay plates; column 4 receives only TEA buffer as 0x TbPYK controls. Compounds are then transferred via Kalypsys pin tool equipped with 1536-pin array (10 nL slotted pins, V&P Scientific, San Diego, CA). Following addition of compound, 2 uL of ADP (130 uM final concentration, all columns) is added to initiate the reaction. The plates are then incubated at room temperature for 45 minutes. Kinase-Glo Plus reagent is added (3 uL) and plates incubated for 10 minutes, before being transferred to a ViewLux high-throughput CCD imager (PerkinElmer) wherein single end-point measurements of luminescence are acquired using a clear filter. All reagents are diluted in an assay buffer consisting of 50 mM TEA (pH 7.2), 100 mM KCl, 10 mM MgCl2, 0.05% BSA and 0.01% Tween-20.
# All screening operations will be performed on a fully integrated robotic system (Kalypsys, San Diego, CA) containing one RX-130 and two RX-90 anthropomorphic robotic arms (Staeubli, Duncan, SC). Library plates will be screened starting from the lowest and proceeding to the highest concentration. Vehicle-only plates, with DMSO being pin-transferred to columns 5-48, will be inserted uniformly at the beginning and the end of each library in order to monitor and record any shifts in the background, which can be affected by reagent dispensers or loss in enzyme activity over time. Screening data will be corrected, normalized, and concentration-effect relationships will be derived by using publicly-available curve fitting algorithms developed in-house (http://ncgc.nih.gov/pub/openhts).
# % is scaled to controls: 0 for no effect and ±100 for the full control effect; potency is read from the fitted curve at half-maximal effect; tags tell the direction and shape of the fitted curve.
SMILES,Potency,"activity, negative = inhibition"
Cc1cc(-c2n[nH]c(=S)n2CC(C)C)cs1,"inconclusive: 8.91 µM [inhibitor, partial curve, poor fit]",–
c1ccc(P(c2ccccc2)c2ccccn2)cc1,"inconclusive: 15.8 µM [inhibitor, partial curve, poor fit]",–
CCOc1ccc(N2C(=O)NC(=O)/C(=C/c3cnc(SC)nc3)C2=O)cc1,"inconclusive: 22.4 µM [inhibitor, partial curve]",–
CCCS(=O)(=O)c1cscc1NC(=O)c1c(-c2c(F)cccc2Cl)noc1C,"inconclusive: 31.6 µM [inhibitor, partial curve]",–
COc1cccc(/C=C/C(=O)c2ccc[nH]2)c1,–,inactive: -4.83%
O=C(c1ccc(-c2ccc([N+](=O)[O-])cc2)o1)N1CCCCCCC1,"inconclusive: 35.5 µM [inhibitor, single point]",–
N#Cc1c(C#N)c(SSc2c(C#N)c(C#N)c(N)n2-c2ccccc2)n(-c2ccccc2)c1N,active: 0.891 µM,–
COc1cc(N=c2ssnc2Cl)cc(OC)c1,active: 28.2 µM,–
CCc1ccc(-n2c(=S)sc3c(=O)n(-c4ccccc4OC)c(=S)[nH]c32)cc1,"inconclusive: 11.2 µM [inhibitor, partial curve, poor fit]",–
CCCCC(CC(C)O)c1n[nH]c(=S)n1-c1ccccc1 (stereo unspecified),"inconclusive: 28.2 µM [inhibitor, partial curve, poor fit]",–
Cc1cc(-c2ccccc2)c(C#N)c(=S)[nH]1,"inconclusive: 8.91 µM [inhibitor, partial curve, poor fit]",–
COc1cccc(NC(=O)CN(C)C(=O)CNC(=O)c2ccc(Oc3ccccc3)cc2)c1,–,inactive: -1.48%
COc1cc(/C=N/n2c(-c3ccccc3)n[nH]c2=S)cc(OC)c1O,"inconclusive: 2.24 µM [inhibitor, full curve, poor fit]",–
CC(=O)Nc1ccccc1NC(=O)C/C(C)=N/NC(=O)c1ccncc1,–,inactive: -0.218%
COc1ccc(NC(=O)N(C)C[C@H]2OCCCC[C@@H](C)Oc3ccc(N(C)C)cc3C(=O)N([C@H](C)CO)C[C@@H]2C)cc1,"inconclusive: 28.2 µM [inhibitor, single point]",–
O=S(=O)(Nc1cc(S(=O)(=O)N2CCOCC2)ccc1O)c1ccc2c(c1)OCCCO2,"inconclusive: 11.2 µM [inhibitor, partial curve, poor fit]",–
COc1ccc(C(=O)NC(=S)Nc2cccc3cc(O)ccc23)cc1OC,–,inactive: -15.2%
CCOC(=O)COc1ccc(/C=C2\C(=O)NC(=S)N(c3ccc(OC)cc3)C2=O)cc1OC,"inconclusive: 20 µM [inhibitor, partial curve, poor fit]",–
CC(C)(C)c1cn(-c2ccccc2)c(=S)[nH]1,"inconclusive: 2.24 µM [inhibitor, full curve, poor fit]",–
CCn1c(-c2cccc(Cl)c2)n[nH]c1=S,"inconclusive: 17.8 µM [inhibitor, partial curve]",–
NC(=S)N/N=C/c1ccc2ccccc2c1,–,inactive: -18.4%
CCCCn1c(-c2csc(CC)c2)n[nH]c1=S,active: 3.98 µM,–
CCc1nc(OCCN(C)C)c2oc3ccccc3c2n1,–,inactive: -0.322%
Cc1cc(C)cc(NS(=O)(=O)c2ccc3[nH]cc(C(=O)N4CCc5ccccc54)c(=O)c3c2)c1,–,inactive: 3.91%

SMILES,Potency,"activity, negative = inhibition"
COc1cccc(/C=N/Nc2ccc(C(=O)O)cc2)c1O,"inconclusive: 25.1 µM [inhibitor, partial curve]",–
COc1cccc(/C=N/n2c(C3CCCCC3)n[nH]c2=S)c1OC,active: 5.62 µM,–
COc1cc(NC(=O)COc2ccc(F)cc2)nc(OC)n1,–,inactive: -4.13%
O=C1C(Cl)=C(Oc2ccccc2)C(=O)c2ccccc21,"inconclusive: 3.16 µM [inhibitor, full curve, poor fit]",–
Cc1ccc(NC2c3ncccc3C(=O)N2c2ccccc2C)cc1C (stereo unspecified),"inconclusive: 17.8 µM [inhibitor, partial curve]",–
COc1cccc(-c2cc(C(=O)Nc3cccc(O)c3)no2)c1,"inconclusive: 50.1 µM [inhibitor, single point]",–
Cc1cc(C)c(C#N)c(SC2CCCCC2=O)n1 (stereo unspecified),"inconclusive: 25.1 µM [inhibitor, partial curve, poor fit]",–
O=C1OCCC1Sc1nc2cc(Cl)ccc2n1Cc1ccccc1 (stereo unspecified),"inconclusive: 22.4 µM [inhibitor, partial curve, poor fit]",–
CC(CCc1ccccc1)NC(=O)COC(=O)c1ccc(S(C)(=O)=O)c([N+](=O)[O-])c1 (stereo unspecified),–,inactive: -2.44%
Cc1ccc2nc(CSc3nc(C)ccc3C#N)[nH]c2c1,"inconclusive: 39.8 µM [inhibitor, single point]",–
Clc1ccc(C2=NOC(c3nnc(-c4ccccc4)o3)C2)cc1 (stereo unspecified),–,inactive: -9.26%
COc1ccccc1N1CCN(c2ccc(-c3ccccc3)nn2)CC1,"inconclusive: 35.5 µM [inhibitor, single point]",–
O=[N+]([O-])c1ccc(-c2csc3[n+]2CCS3)cc1,"inconclusive: 28.2 µM [inhibitor, partial curve, poor fit]",–
Cc1c(CCC(=O)NCc2cccc(Cl)c2)c(=O)oc2c(C)c(O)ccc12,–,inactive: 2.7%
CC(C)CCN(C(=O)CCCSc1nc2ccccc2[nH]1)c1c(N)n(Cc2ccccc2)c(=O)[nH]c1=O,–,inactive: 6.02%
Cc1cc2cc(CNC(=O)CC(C)C)ccc2n1C,"inconclusive: 50.1 µM [inhibitor, single point]",–
O=C1C=CN(C2OC(CO)C(O)C2O)C(=O)C1 (stereo unspecified),–,inactive: 2.14%
CC(C)(CO)NCc1ccc(Br)cc1,"inconclusive: 25.1 µM [inhibitor, partial curve]",–
Cn1c(=O)cc(C(=O)N/N=C/c2ccc(F)cc2)[nH]c1=O,–,inactive: -14.2%
CCCCn1c(-c2csc(CCC)c2)n[nH]c1=S,"inconclusive: 22.4 µM [inhibitor, partial curve]",–
Oc1ccc([C@H]2CNCc3c2ccc(O)c3O)cc1O,active: 3.16 µM,–
Cc1cccc(OCCCSc2nc3ccc(C)cc3[nH]2)c1,–,inactive: -10.8%
CCCC1=Nc2cc(C(=O)NC3CCCC3)ccc2Sc2ccc(C)cc21,–,inactive: 3.28%
O=C(Nc1nc2ccc(S(=O)(=O)N3CCCC3)cc2s1)c1ccccn1,"inconclusive: 5.62 µM [inhibitor, partial curve]",–

SMILES,Potency,"activity, negative = inhibition"
COc1cccc(-n2cc(C(=O)NCCc3ccc(C)cc3)c3ccccc3c2=O)c1,"inconclusive: 25.1 µM [inhibitor, single point]",–
Cn1c(CSCc2ccc(Cl)cc2)n[nH]c1=S,"inconclusive: 11.2 µM [inhibitor, partial curve]",–
COc1cc(-c2nnc3sc(-c4ccncc4)nn23)cc(OC)c1OC,"inconclusive: 8.91 µM [inhibitor, partial curve, poor fit]",–
CCOC(=O)c1sc(NC(=O)c2cc(-c3ccccc3)nc3ccccc23)c(C#N)c1C,"inconclusive: 25.1 µM [inhibitor, partial curve]",–
Cc1onc(-c2c(Cl)cccc2Cl)c1C(=O)NCc1cccs1,"inconclusive: 31.6 µM [inhibitor, partial curve, poor fit]",–
CCOC(=O)/C(=C\c1cccnc1)C(=O)c1cc(C(C)=O)c(Nc2ccccc2)s1,"inconclusive: 22.4 µM [inhibitor, partial curve, poor fit]",–
COc1ccccc1CNC(=O)CN1C(=O)COc2ccc(S(=O)(=O)Nc3ccccc3)cc21,–,inactive: 6.48%
C=CCN1C(=O)NC(=O)/C(=C\c2ccc(-c3ccccc3[N+](=O)[O-])o2)C1=O,"inconclusive: 31.6 µM [inhibitor, partial curve, poor fit]",–
CC(=O)Nc1ccc(C2=NNC(=Nc3cccc(S(=O)(=O)N(C)C)c3)SC2)cc1,"inconclusive: 50.1 µM [inhibitor, single point]",–
Cc1cc(CN(C)Cc2cn(C)nc2-c2ccc(Oc3ccccc3)cc2)on1,–,inactive: 2.13%
COc1cccc(NS(=O)(=O)c2ccc3c(c2)C2C=CCC2C(c2ccc(C(=O)O)cc2)N3)c1 (stereo unspecified),"inconclusive: 7.08 µM [inhibitor, partial curve, poor fit]",–
NC(=S)N/N=C/c1ccc(-c2cccc([N+](=O)[O-])c2)o1,–,inactive: 6.58%
O=C(O)Cn1cc(C(=O)C2CC2)c2ccccc21,–,inactive: 10.8%
S=c1nc(-c2ccc(Cl)cc2)[nH][nH]1,"inconclusive: 15.8 µM [inhibitor, partial curve, poor fit]",–
COc1ccc(-n2nc(C(=O)NCC(=O)N3CCOCC3)c3ccccc3c2=O)c(OC)c1,–,inactive: -3.67%
Cc1ccc(F)cc1NC(=O)CCc1c(C)nn(-c2ccc(N3CCCC3)nn2)c1C,–,inactive: 19.6%
CCNC(=O)C1(C)CCCN(C(=O)c2cc(C)n(C(C)(C)C)n2)C1 (stereo unspecified),–,inactive: 1.62%
COc1ccccc1N1CCN(C(=O)c2ccc(C(C)(C)C)cc2)CC1,"inconclusive: 28.2 µM [inhibitor, single point]",–
O=[N+]([O-])c1ccccc1/C=N/n1c(-c2cccnc2)n[nH]c1=S,"inconclusive: 8.91 µM [inhibitor, partial curve, poor fit]",–
COc1cc(/C=C/C2=CC(C)(C)NC(=S)N2)cc(OC)c1OC,"inconclusive: 12.6 µM [inhibitor, partial curve, poor fit]",–
COC(=O)c1ccccc1NC=C1C(=O)OC2(CCCCC2)OC1=O,–,inactive: 1.56%
CCc1c(C(=O)Nc2ccccc2)c(C)[nH]c(=S)c1C#N,"inconclusive: 35.5 µM [inhibitor, partial curve]",–
S=c1[nH]nc(-c2ccc(Cl)cc2)n1-c1ccc2c(c1)OCCO2,"inconclusive: 2.24 µM [inhibitor, full curve, poor fit]",–
